The other results are listed elsewhere or left out.
tested on: PfAP2-HC AP2 domain (GST-tagged); test: gcPBM binding intensity (ln(normalized median fluorescence intensity)); higher = stronger DNA binding
In short: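 Using an Agilent 4 × 180k array, primer-extended double-stranded 36-bp intergenic genomic probes and negative controls were exposed for 1 h to GST-fused P. falciparum DNA-binding domains expressed in E. coli. Binding was carried out in 1× PBS with 1% milk, 0.2 mg/ml BSA, 0.5% salmon testes DNA and 0.03% Triton X-100, and protein was detected with Alexa488 anti-GST antibody and a 488 nm scan. Binding intensity is the highest Masliner-normalised natural-log median intensity across replicate spots of either probe orientation.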

Sequence | gcPBM binding intensity (ln)
TATATAACTTTATTTTTCTTTACTTATTTTATTTTA [GTGCAC_negctrl_site66] | 9.7
CTAGCAAATACATACACACACACACGGATACCTATA [CACACA_site7609] | 10.4
TTTTTTAAAATATATATAATGAATTTTTTTTTTTTT [CACACA_negctrl_site1577] | 9
AAAGAAAAAAAAAAAAGTACATAAATATAAAAAGAA [XGTACX_site6753] | 9.72
ATATATATATATATATGTACATATTATTAATAATAT [XGTACX_site6667] | 9.76
TATTTATATTTATATACACACTATATAACTCAAACA [CACACA_site6611] | 9.67
AATTGTTCGATATATGCACACAGTTTTGTTATTTTT [CACACA_site1615] | 10.1
ATACATATTAACAAGGTGCAAATGGATTTCATAAAA [GTGCAC_site9775] | 9.74
TTTTTTTTTTTGTGAGTGCACGTATGAAGAGAAAAA | 9.33
TTATGGAACCCCATTCGTACATAAATATTTTATATA [XGTACX_site7112] | 9.56
GATATGATTACCTTATGGTGTTTTTGATGGATAGTT [CACACA_negctrl_site1504] | 9.68
TTTTTTATTTTAATGTATTATTTTTATGTAATATAT [GTGCAC_negctrl_site391] | 9.68
TATATACAAATATGCTGTACAAAAAAAAAAAAAAAA [XGTACX_site4732] | 9.24
TATAATAATAATGATAGTACGTATGAGTTCAAAAAA [XGTACX_site608] | 9.85
CGGTATTTTTTAATTTGTACGCATATACAATAATTA [XGTACX_site8603] | 9.54
TTTTATTATTTATATACACACTTGCTGAAATGTTAT [CACACA_site5919] | 9.86
TTTATGCACGCGTGCACACACATATGAAAAAAGGTA [CACACA_site3315] | 10.1
TATGTTTAAATATATTGTACGCACGTATGTTTTTAA [XGTACX_site1108] | 9.65
ACAAATAAATATATATGTACATATATTTTTTTATTT [XGTACX_site2989] | 9.68
TTTTATTTATATTATACACACAAGGAAAAAAAAAAA [CACACA_site7690] | 9.63
AATACCTTTTAATAATGTACAAACAAAAATTAGAGA [XGTACX_site6850] | 9.66
TATATATTAAAAATAGTGCAAAATAATATATATATA [GTGCAC_site9716] | 9.82
AAGGGGAGAAAAATAAACGAAATATATACATACATA [XGTACX_negctrl_site88] | 9.64
ATATATATATATATATGTACATATTCATCTTATTCT [XGTACX_site1537] | 10.4
